This is an account of results in PubChem BioAssay AID1508623 (National Center for Advancing Translational Sciences (NCATS), 2021).

Each structure is given as a SMILES string. Out of some 48,000 compounds screened, about 450 (0.94%) were called active. Another 19% or so got no clear call; they are omitted. Calls follow the shape of the dose curve; as a rule, active = well fitted inhibition curve with a large enough effect; inconclusive = small, poorly fitted or top-dose-only effect; inactive = no such curve, though single readings can be large or run the other way. The list shows a part of the results.

The test is described as follows: Primary qHTS for Identification of Small Molecule Inhibitors of Huntingtin Promoter Activity. Also: nearly all actives have a fitted effect of over 50% in size. The conditions noted are these: HEK293 HTT promoter firefly luciferase reporter (activity 0% = vehicle and -100% = no light), 24 h; series mostly up to 57.5 µM; activity change, negative = inhibition: at the top concentration. The method in brief:
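HEK293 Fluc reporter, 2,500 cells/well, 24 h pre-culture; cpds up to 57.5 uM final, 24 h 37 degrees C; Dual-Glo, 10 min RT; normalized vehicle = 0%, zero RLU = -100%.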
Turning to `O=C(COc1ccccc1)OCc1cc(=O)n2nc(C3CC3)sc2n1`, the “activity change, negative = inhibition” value is inactive: -5.18%.
Take `Cc1ccc(C(=O)c2c(N)c(-c3nc(-c4ccc5c(c4)OCO5)cs3)c3ccccn23)cc1C`: the “activity change, negative = inhibition” value is inactive: -19.9%.
Then `Cc1cccc(N2CCN(C(=O)Cc3c(C(=O)O)c(C)cn3C)CC2)c1C`, with inactive: -26.4%; and `Cc1ccc(C(=O)Nc2cc(-c3nc4ncccc4o3)ccc2C)c(C)c1`, with inactive: 22.6%.
For `COCc1nn2cc(-c3ccc(C)cc3)nc2s1`, the “activity change, negative = inhibition” value was inactive: -25.9%.
Consider `CC(=O)N1CCc2c(sc3c2c(=O)n(Cc2ccccc2)c(=O)n3Cc2ccc(C)cc2)C1`, for which the “activity change, negative = inhibition” value was inactive: -4.97%.
Take `COC(=O)c1ccc(Cn2cnc3nc4c(cc3c2=O)CCCC4)cc1`: the “activity change, negative = inhibition” value is inactive: 0.478%.
Then `CCOc1ccccc1CNC(=O)C1CCN(S(=O)(=O)c2ccc3[nH]c(=O)ccc3c2)CC1`, with inactive: -4.49%; and `CCOc1ccccc1NC(=O)Cn1ncc2c(=O)oc3ccc(C)cc3c21`, with inactive: 13.4%; and `CCOC(=O)c1c(C)oc2ncnc(Nc3ccc(OC)cc3OC)c12`, with inactive: -10.9%.
As to `COc1ccccc1NC(=O)CSC1=Nc2ccccc2C2=NC(CCC(=O)NCCc3ccccc3)C(=O)N12` (configuration not stated), the “activity change, negative = inhibition” value was inactive: -17.5%.
In the case of `O=C(Nc1nc2c(s1)CCCCCC2)Nc1ccc(F)cc1F` it was inactive: 47.6%; in that of `COc1ccc(N2CCN(C(c3ccccc3)c3sc4nc(-c5ccco5)nn4c3O)CC2)cc1` (configuration not stated), inactive: -28.7%.
As to `CN1C(=O)Cc2cc(S(=O)(=O)NCCc3ccc(Cl)cc3)ccc21`, the “activity change, negative = inhibition” value was inactive: 8.5%.
In the case of `O=C(Nc1ccc(O)c(-c2nc3ccccc3o2)c1)c1sc2ccccc2c1Cl`, the “activity change, negative = inhibition” value is inactive: -17.4%.
Turning to `Cc1cccc(C2C=C(c3ccc(C)c(C)c3)Nc3nnnn32)c1` (configuration not stated), the “activity change, negative = inhibition” value was inactive: -11.9%.
Then `CC(C)c1ccc(NC(=O)c2ccc3c(c2)CCN3S(=O)(=O)c2ccccc2)cc1`, with inactive: -27.1%.
Consider `O=C(Nc1nnc(S(=O)(=O)N2CCCc3ccccc32)s1)c1ccccc1Cl`, for which the “activity change, negative = inhibition” value is inactive: -18.7%.
In the case of `CCc1nn2c(=O)cc(COC(=O)CNC(=O)COc3ccc(C)cc3)nc2s1`, the “activity change, negative = inhibition” value is inactive: -1.71%.
For `CC(C)CC(NS(=O)(=O)c1ccc2c(c1)oc(=O)n2C)C(=O)NCc1ccccc1Cl` (configuration not stated), the “activity change, negative = inhibition” value is inactive: -9.1%.
In the case of `Cc1ccc(NC(=O)CN2CCN(S(=O)(=O)c3ccc(C(C)C)cc3)CC2)cc1F`, the “activity change, negative = inhibition” value is inactive: -19.6%.
Then `COc1ccc(Nc2nc(N)nc(N)c2S(=O)(=O)c2ccccc2)cc1`, with inactive: -24%; and `Cc1cn(C)c(CC(=O)N2CCN(c3cccc(Cl)c3)CC2)c1C(=O)O`, with inactive: -20.2%.
In the case of `Nc1nc2c(ncn2CCC(CO)CO)c(=O)[nH]1` it was inactive: -5.6%; in that of `Cc1ccc(-n2cc(C(=O)Oc3cccc(C)c3)c3ccccc3c2=O)cc1`, inactive: -8.62%; in that of `O=c1c2ccccc2n(Cc2ccccc2Cl)c(=O)n1CCc1ccccc1`, inactive: 0.139%.
For `CCCN(CCC)C(=O)Cn1c(=O)n(-c2ccc(CC)cc2)c(=O)c2ccc(C(=O)NCCc3ccccc3)cc21`, the “activity change, negative = inhibition” value is inactive: -15.8%.
